Assay results: the supplement of paper PMC11417369
± gives the standard deviation of the averaged measurements. Some of the results follow.

tested on: PfAP2-EXP AP2 domain (GST-tagged); assay: gcPBM binding intensity (ln(normalized median fluorescence intensity)); higher = stronger DNA binding
Outline: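 An Agilent 4 × 180k array of primer-extended double-stranded 36-bp intergenic genomic probes, with negative controls, was incubated for 1 h with GST-tagged P. falciparum DNA-binding domains expressed in E. coli. Alexa488 anti-GST antibody detected bound protein, scanned at 488 nm. Binding intensity is the highest Masliner-normalised natural-log median intensity across replicate spots of either probe orientation.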

Row | Sequence | gcPBM binding intensity (ln)
1 | TTATCACACCTTTTTTGTACGAAATAAAAAAAAAAA [XGTACX_site5564] | 8.33 ± 0.37
2 | ATTTTTACTTTTTATGCATGCTATATTTTCAACCAT [TGCATGCA_site871] | 9.91 ± 0.22
3 | GGTATTACTTTTAGCTGTACTTATTTAAAAGTCAAA [XGTACX_site530] | 8.81 ± 0.13
4 | ATTTTTTTTTTTTTATGTACATATTAAAAAAAATAT [XGTACX_site1829] | 8.49 ± 0.39
5 | ATTAAGGAAAAATTATGTACACAAAAACATATAACA [XGTACX_site2901] | 8.88 ± 0.21
6 | TATACATGTTCAATTTGTACATATATAAATATATAT [XGTACX_site3554] | 8.38 ± 0.29
7 | CTACACAAGCATTAAACACACAAAAGGGATACTTTG [CACACA_site1083] | 8.61 ± 0.57
8 | ATTCAAAAAAATAAAATAAACATAAATAAACATAAA [TGCATGCA_negctrl_site390] | 8.62 ± 0.4
9 | AAAATATTTAAGCATTGTACATATTTTTACAAATAC [XGTACX_site5349] | 8.38 ± 0.42
10 | AAAATTCATCCAACAAGTACATAAATATAATATTAT [XGTACX_site4596] | 8.48 ± 0.35
11 | GGAAAAAGAAATTAATGTACATGTGGATGTATGAGG [XGTACX_site5468] | 8.95 ± 0.43
12 | TAGAAACCATAAAAATGTACTTAAAAATAGACAATT [XGTACX_site5007] | 8.53 ± 0.3
13 | AAGAACAGATAAAATCGTACGTGAAACATGAACTTG [XGTACX_site7793] | 8.67 ± 0.33
14 | TCTGAAATTTTAGGGGTGCCTGGGACTAAAGAAACG [GTGCAC_site9785] | 8.74 ± 0.33
15 | ATACATAAATATTATTGTACATATATAATATTAATA [XGTACX_site3514] | 8.29 ± 0.35
16 | ATAAATTCATTATATTGTACAAACAAATGAAAAAAA [XGTACX_site8304] | 8.57 ± 0.33
17 | AGACTTTTTATGAGCACACACATATATTATGGAGTA [CACACA_site1040] | 8.56 ± 0.38
18 | TTTAATTCCCATATATGTACACAATTTCTTCTATAA [XGTACX_site1465] | 8.86 ± 0.47
19 | TCTTCATATGTTTACTGTACGAGAAAAAAAAAAAAA [XGTACX_site6418] | 8.62 ± 0.5
20 | TATGTGTATTTATTTGCATGTTGGTTGTATTTTTTC [TGCATGCA_site479] | 8.66 ± 0.35
21 | TAATAAAATAAAAATTGTACATTTTATATTTATCAA [XGTACX_site5134] | 8.01 ± 0.3
22 | AATGAAAAAAAAAAAAAAAAGAAGAAGCAAATGGTA [TGCATGCA_negctrl_site335] | 8.62 ± 0.7
23 | AGATTATTTGGACATGCATGTAAAAAAATACGTATA [TGCATGCA_site972] | 9.57 ± 0.3

Row | Sequence | gcPBM binding intensity (ln)
24 | ATAAATAATTATATATGTACACATTATGAATGGATA [XGTACX_site8336] | 8.73 ± 0.35
25 | AAAAGTGATAATAAGAGTACATAAAAAATTTATTAT [XGTACX_site8037] | 8.63 ± 0.3
26 | TTATTTGTTTGTTGGATGCTTTTTTTTTTTTTTTTT [CACACA_negctrl_site1697] | 8.71 ± 0.2
27 | TACATATATATAATATGTACTTATAATATGTATTTA [XGTACX_site2162] | 8.09 ± 0.31
28 | ATTTCCCACTTGTGTGTGCGCATGTGTATATATTTA [GTGCAC_site9949] | 9.18 ± 0.45
29 | AAATAATTTATAAATAAATACATTGTTACTTTTTCT [GTGCAC_negctrl_site639] | 8.23 ± 0.29
30 | TATTCTATACTATATTGTACTATAATATAATATACT [XGTACX_site797] | 8.44 ± 0.31
31 | AGCCACTTAAAATACACACACACCAAAAAAAAAAAA [CACACA_site5497] | 8.31 ± 0.42
32 | TATTTTATTTATTGAAGTACATTATACAAAAATAAA [XGTACX_site4824] | 8.47 ± 0.27
33 | TATTCGAACAAAAATACATGCACATATGCATAATAA [TGCATGCA_site171] | 8.89 ± 0.099
34 | TTTTCCAGTAAATATTTTTTTATAATATTTATATAT [CACACA_negctrl_site387] | 8.3 ± 0.4
35 | AAATAAAATAAAATACGTACCTATTGTGCGTATTAA [XGTACX_site2912] | 8.11 ± 0.2
36 | TAATAAATGTTATTAGTGCATAATAGATAATATATT | 8.75 ± 0.13
37 | AATAATTTCCAAAAATGTACATATATTTACATATAT [XGTACX_site1790] | 8.4 ± 0.4
38 | ATTTTAACTCCCCTTAATCTATTGTATATATATATA [CACACA_negctrl_site208] | 9.95 ± 0.21
39 | ATTGTGGATATTCTTACACACAAATTTATTTATAAA [CACACA_site7267] | 8.13 ± 0.36
40 | TAAGAAATTGAGCGCACACATACATCTGTGGGATGG [CACACA_site1548] | 8.65 ± 0.69
41 | TTTTTTTCTTCTTTTCTCTTAAAAATATTGAATATT [CACACA_negctrl_site1762] | 8.49 ± 0.49
42 | ATGTAAATATTTTGTATGCACTTTGATGCATCTTTT | 8.64 ± 0.25
43 | TCAAGAGTTATATAAACACACATACATACAGACATA [CACACA_site6998] | 8.76 ± 0.58
44 | AAAAAAAAAAAAAAAAAAAAAAAAAAAAAAAAAAAG [CACACA_negctrl_site292] | 9.325 ± 0.035
45 | GTTTTCTAGTGGGGGTGTACATATTTATATTTAATA [XGTACX_site8378] | 10.9 ± 0.34
46 | ATATATATATAATAAGTGCAAAAAAAAGAAAAAAAT | 9.285 ± 0.078

Row | Sequence | gcPBM binding intensity (ln)
47 | AGCAAAAAAAAAAAAAAAAAAAAAATAATAAAAAAT [TGCATGCA_negctrl_site202] | 8.19 ± 0.5
48 | CATATATTAATATGTACACACATTAATAAAAAAAAA [CACACA_site7504] | 8.32 ± 0.29
49 | TTTTTTTTTTTTGAGGTGCATATATCAGATCAATAT | 8.705 ± 0.035
50 | AGTATTCATAAAAATACACACATGGAAAAATAAAAT [CACACA_site1454] | 8.82 ± 0.59
51 | ATATATACATATATTACACACTTCTTATTCTAAGAA [CACACA_site3022] | 8.38 ± 0.45
52 | CTAGCAAATACATACACACACACACCGATACAGATA [CACACA_site5853] | 8.66 ± 0.66
53 | TATAATATAAGGATCACACACAAACACCCATATATA [CACACA_site4468] | 8.74 ± 0.52
54 | TCCATAAAAATGGATACACACACATAATATATATAT [CACACA_site9207] | 9.3 ± 0.28
55 | CATACATACATACATACACACATACCTATATTTATA [CACACA_site6769] | 9.2 ± 0.2
56 | TTAATAACAAAATAAACACACATATATAAATACCCA [CACACA_site4960] | 8.6 ± 0.54
57 | TTTGAAATAAGCAAATGTACATTATTATTAAATATA [XGTACX_site6158] | 8.38 ± 0.32
58 | TTGCCCATTTAATTAACACACAAATGTTTATATTCT [CACACA_site6488] | 8.79 ± 0.24
59 | TGTATGATAACTATAGTGCATTTGGTAATTTTTCCA | 8.52 ± 0.29
60 | TTCACATACAGAAACACACACATATATATAAATTAA [CACACA_site3705] | 8.6 ± 0.45
61 | TATTTCATGATACAATGTACATGTATATATGATACC [XGTACX_site5057] | 8.62 ± 0.34
62 | AATAATATATATTACACACGCATCGTTCATTTATTT [CACACA_site2391] | 8.9 ± 0.59
63 | AAATATAATATATGCACACATACATACAGATATATA [CACACA_site4235] | 8.4 ± 0.18
64 | ATAAATATAGGACACACACACATATTATATATATAT [CACACA_site5658] | 9.65 ± 0.12
65 | ATAATATAAATATGCACACAAATTATTACCCAAAAA [CACACA_site2524] | 8.56 ± 0.2
66 | GTTATATTCCTACAGAGTACATAAAAATGCACATCA [XGTACX_site1948] | 8.64 ± 0.13
67 | TATATAAAAAAACAAAGTACATGTTCTTAATCATTT [XGTACX_site8446] | 8.41 ± 0.37
68 | AAATGAACAAGTGGCACACACACATCATAACTAATT [CACACA_site5730] | 8.69 ± 0.37
69 | ATATATTTTTTCTTAACACACATATATAAAATAAAA [CACACA_site3500] | 8.34 ± 0.33

Row | Sequence | gcPBM binding intensity (ln)
70 | CAAAATATATATACCACACACACATACCTCTATTTG [CACACA_site1853] | 8.69 ± 0.31
71 | CACGCGAACATACATACACACACATATATATATATG [CACACA_site7951] | 8.97 ± 0.42
72 | TATATATATATATACACACACACACCGATATATATA [CACACA_site8813] | 10.3 ± 0.41
73 | ACCCTCATATTATAGACACACACAAAAAAAATAAAA [CACACA_site7941] | 8.64 ± 0.58
74 | AGAAATGAAATATACACACATACATATATACATATA [CACACA_site4033] | 8.49 ± 0.27
75 | ATTAATAATGAGTTATGTACATACATATTTTAAGAT [XGTACX_site7543] | 8.77 ± 0.32
76 | TAAATACACCCTAGACGTACATAAAAATTTAGTATG [XGTACX_site2512] | 8.63 ± 0.45
77 | TGTCCTTATGGGCACACACACATATAAGAAATTTAA [CACACA_site3187] | 8.41 ± 0.53
78 | TAAACATACATATACACACACACACCCACACCCACA [CACACA_site492] | 8.79 ± 0.65
79 | AAAAACAAACTGTGCATGCACCAAAAAAAAAAAAAA | 9.38 ± 0.16
80 | ATATTTATATATATGTGTACATATAGAAACATAAAA [XGTACX_site4355] | 8.47 ± 0.31
81 | CTTCTTATTTTCTAATGTACGTACAAATCATTTATA [XGTACX_site2176] | 9.14 ± 0.35
82 | TTTTTTTTTTTAATTTGTACGAATCTTTTTATTTTA [XGTACX_site4516] | 8.54 ± 0.49
83 | ATTTTTTTATAAAATTTTTATATATTATATAAATAT [GTGCAC_negctrl_site163] | 8.23 ± 0.47
84 | TAAAAATAGTATACAACACACGAGGGAAAATAAAGT [CACACA_site3837] | 9.56 ± 0.49
85 | GCCAATAAAGATGTGGTGCATTATATATATATATAT | 10.3 ± 0.23
86 | AAATGTATAATATTTTCACACACAAGAAAAAAGAAA [CACACA_site9195] | 8.61 ± 0.49
87 | TATCGAGCACGGCGTGTGGAGTTACAAAGAGGAGAA [CACACA_negctrl_site40] | 9.05 ± 0.37
88 | ATAAACAATTAACAAACATGCAAATTTTAAATGTGT [TGCATGCA_site919] | 8.75 ± 0.21
89 | CGTATTTATATAATTACACACCATATTTTAATTATT [CACACA_site5960] | 8.57 ± 0.38
90 | ATTTATTTGTTTGTTTTTTTTACGATTTTTATTTTT [CACACA_negctrl_site1138] | 8.71 ± 0.5
